{"source": "ChEMBL document CHEMBL4888484", "about": "“Replenishing the malaria drug discovery pipeline: Screening and hit evaluation of the MMV Hit Generation Library 1 (HGL1) against asexual blood stage Plasmodium falciparum ,using a nano luciferase reporter read-out” (2022)", "note": "In all, about 150,000 compounds went through this assay and about 540 (0.36%) showed an effect of 50% or more. The list shows a part of the results."}
{"tested_on": "Plasmodium falciparum", "test": "Primary screen in NF54 nanoGlo assay, in single point, at 2uM, 72h; a lower Z score goes with more inhibition", "assay_type": "functional, Erythrocyte", "details": "timepoint 72 hour", "units": {"% Inhibition": "%"}}
{"molecule": "CCCn1c(C(=O)NCc2ccncc2)cc2cc(NS(=O)(=O)c3ccc(Cl)cc3)ccc21", "% Inhibition": -8, "Z score": 0.98}
{"molecule": "CCCc1csc(-c2cc(N)ccn2)n1", "% Inhibition": -22, "Z score": 2.32}
{"molecule": "Oc1c(-c2n[nH]c(C(F)(F)F)c2-c2cnn(-c3ccccc3)c2)ccc2c1OCCO2", "% Inhibition": 11, "Z score": -1.41}
{"molecule": "C[C@H](O)CN(C(=O)c1cc(F)cc2ccoc12)C1CC1", "% Inhibition": -1, "Z score": 0.19}
{"molecule": "c1c(N2CCCCC2)c2nonc2c2nonc12", "% Inhibition": -16, "Z score": 1.43}
{"molecule": "COc1ccccc1-n1nc(CN(C(=O)c2cccs2)C(C)C)c2c1CCN(Cc1ccccc1F)C2", "% Inhibition": -7, "Z score": 0.92}
{"molecule": "Cc1cc(Cl)c2c(c1)[C@@H](NCCn1cc(C)cn1)CCCO2", "% Inhibition": -10, "Z score": 1.45}
{"molecule": "COc1cccc(Oc2nc(N3CCN(C)CC3)nc3c2CN(C(=O)Nc2ccccc2)CC3)c1", "% Inhibition": 33, "Z score": -0.83}
{"molecule": "O=C(Cc1n[nH]c(=O)c2ccccc12)N1CCc2ccccc2C1", "% Inhibition": -2, "Z score": 0.28}
{"molecule": "NC(=O)c1ccnc(Oc2ccccc2CN2CCCCC2)c1", "% Inhibition": -15, "Z score": 1.68}
{"molecule": "O=C(c1cccc(-c2ccccc2O)c1)N1CCCN(C2CCCC2)CC1", "% Inhibition": 0, "Z score": 0.04}
{"molecule": "COCCC[C@H]1CCCCN1S(=O)(=O)c1cc(-c2ccno2)ccc1C", "% Inhibition": 9, "Z score": -1.26}
{"molecule": "CCOC1CCN(C(=O)c2nc3cccnc3[nH]2)CC1", "% Inhibition": -10, "Z score": 1.26}
{"molecule": "COc1cccc(N2CCN(S(=O)(=O)c3cc(-c4cc(C)no4)ccc3OC)CC2)c1", "% Inhibition": 1, "Z score": -0.12}
{"molecule": "Cc1cccc(NC(=O)Cn2cnc3c(nnn3C)c2=O)c1", "% Inhibition": -14, "Z score": 2.23}
{"molecule": "C[C@@H](CNC1CCN(c2ccc(F)c(F)c2)CC1)Oc1cccnc1", "% Inhibition": -1, "Z score": 0.17}
{"molecule": "Cc1nc(-c2cc3ccccc3nc2N2CCN(Cc3ccccc3)CC2)no1", "% Inhibition": -7, "Z score": 1.32}
{"molecule": "Cc1nc(CNc2cc(F)c(F)cc2F)no1", "% Inhibition": 2, "Z score": -0.2}
{"molecule": "Cc1cccc(CN(C)CCc2c(C)n[nH]c2C)n1", "% Inhibition": 7, "Z score": -0.83}
{"molecule": "CC(C)CC(=O)NCc1nnc(C(=O)Nc2ccc3c(c2)OCO3)s1", "% Inhibition": -7, "Z score": 1.21}
{"molecule": "C[C@@H](Cc1ccc(F)cc1)NS(=O)(=O)CCCF", "% Inhibition": -11, "Z score": 1.01}
{"molecule": "CCOCC(=O)Nc1ccc(C(C)=O)c(Cl)c1", "% Inhibition": 38, "Z score": -5.13}
{"molecule": "COc1cccc(-n2cc(-c3ccc(Cl)cc3)nc2NC(=O)CN(C(C)C)S(=O)(=O)c2ccc(Cl)cc2)c1", "% Inhibition": -16, "Z score": 2.39}
{"molecule": "COc1ccc(CN2CCN(Cc3nc(C(=O)NCc4ccco4)co3)CC2)cc1", "% Inhibition": 1, "Z score": -0.08}
{"molecule": "Cc1cc(-n2cncn2)ccc1C(=O)OCCn1cncn1", "% Inhibition": -13, "Z score": 1.12}
{"molecule": "COc1ccc(CNC(=O)c2nn(-c3ccc(F)cc3)c3ccccc3c2=O)cc1OC", "% Inhibition": -5, "Z score": 0.92}
{"molecule": "c1cncc(-n2cccc2[C@@H]2NCCc3[nH]cnc32)c1", "% Inhibition": -4, "Z score": 0.33}
{"molecule": "O=C(N[C@@H]1COc2c(F)cc(F)cc2C1)c1ccc(Cn2cc(Cl)cn2)s1", "% Inhibition": -6, "Z score": 0.89}
{"molecule": "CN(C)c1ccc(NC(=O)Cc2noc3ccccc23)nc1", "% Inhibition": 1, "Z score": -0.14}
{"molecule": "Cc1ccc(F)cc1C(=O)N[C@H]1CCCc2c1ccc(=O)n2C", "% Inhibition": 0, "Z score": 0.01}
{"molecule": "COc1ccc(CN2CCN3CCC[C@H]3C2)c(OC)c1OC", "% Inhibition": -17, "Z score": 2.06}
{"molecule": "COC(=O)CCS(=O)(=O)N1CCCC1", "% Inhibition": -6, "Z score": 0.85}
{"molecule": "COc1ccccc1-c1cc(C(F)(F)F)n2ncc(C(=O)OCCc3c(C)noc3C)c2n1", "% Inhibition": -5, "Z score": 0.73}
{"molecule": "OCC1(O)CCN(c2nccc(C3CCCC3)n2)CC1", "% Inhibition": -3, "Z score": 0.51}
{"molecule": "Cc1csc(C(C)CN=C(N)N2C[C@@H](C)O[C@@H](C)C2)n1", "note": "(stereo partly specified)", "% Inhibition": -13, "Z score": 2.15}
{"molecule": "CN1CCC[C@@]2(CCN(C(=O)CCn3cc(Cl)cn3)C2)C1", "% Inhibition": 1, "Z score": -0.1}
{"molecule": "Cc1cc(C(=O)Nc2c(C)cccc2C)c2c(C)nn(-c3cccc(Cl)c3C)c2n1", "% Inhibition": 6, "Z score": -0.8}
{"molecule": "CC(C)CCN(CCC#N)C(=O)[C@@H]1CC=CCC1", "% Inhibition": -12, "Z score": 1.26}
{"molecule": "CC[C@H](C)NC(=O)c1ccc(-c2c(C)n[nH]c2C)o1", "% Inhibition": 2, "Z score": -0.36}
{"molecule": "O=C(c1ccsc1)N1CCN(S(=O)(=O)c2ccc(F)cc2)CC1", "% Inhibition": -3, "Z score": 0.62}
{"molecule": "CCC1(S(=O)(=O)NC(=O)[C@H]2CCCC2(C)C)CC1", "% Inhibition": 12, "Z score": -1.2}
{"molecule": "Cc1ccc2c(c1)N(Cc1nc(C)cs1)CCCO2", "% Inhibition": -3, "Z score": 0.59}
{"molecule": "CC(C)(c1nc(C[C@H]2CCC3(CCOCC3)CO2)no1)C(F)F", "% Inhibition": -5, "Z score": 0.74}
